# Some of the results follow. The list includes weakly bound sequences.
# Target: MaxL homodimer (UniProt P61244)
# Assay: universal protein-binding microarray (PBM)
# Conditions: PBS-based mixture, 10 nM His-tagged protein dimer, 2% milk, 200 ng/uL BSA, 50 ng/uL salmon testes DNA, 0.02% TX-100; detection with Alexa 488 anti-His …; high values mean tight binding; most listed sequences are background and not binding sites; double strand, one strand shown
# Sequence of UniProt P61244 (P61244 whole entry): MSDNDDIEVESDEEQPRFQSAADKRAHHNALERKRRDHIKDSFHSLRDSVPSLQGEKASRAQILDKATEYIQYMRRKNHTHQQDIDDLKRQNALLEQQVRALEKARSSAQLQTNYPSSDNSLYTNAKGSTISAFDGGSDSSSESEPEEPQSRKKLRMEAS
row,Sequence,binding signal (normalized occupancy)
1,CAAAATTC,0.0707
2,CTAAAGAA,0.0673
3,CGAGCACA,0.0845
4,ACATTGTA,0.085
5,ATGCCCGC,0.0791
6,CAACTCAC,0.0757
7,CTTGGGCC,0.0661
8,AGCAGCCT,0.0719
9,ATAGCAGA,0.0831
10,AGATTAAG,0.0762
11,ACCCATTC,0.0754
12,GTAAAAAA,0.0769
13,CCTCCAAG,0.071
14,GCGCAGAA,0.0697
15,CCACCCTA,0.0825
16,ACCAGGAG,0.0724
17,AGCCGGGC,0.0651
18,AAGATGGT,0.0763
19,ATTAGTGG,0.0793
20,CTGACTCA,0.0764
21,AAGACTGA,0.0739
22,TCAGATGA,0.0795
23,AGGCCCCG,0.0733

row,Sequence,binding signal (normalized occupancy)
1,TGAGCCAA,0.0783
2,CTGGCTTA,0.0662
3,AGTGCCCC,0.0768
4,AAAGGTTA,0.0754
5,AAGCGCAA,0.0657
6,AGACTTAC,0.0779
7,AGAGGTGC,0.0762
8,CGGAATTC,0.0726
9,ACCGTTAT,0.0775
10,GGTCGTGA,0.0739
11,CCTGCGCG,0.069
12,ACTCGGAC,0.0727
13,CAACGGTG,0.0765
14,AACATGAG,0.0999
15,AGATCGAG,0.0716
16,GAGGAAAC,0.0723
17,ATGGTACG,0.08
18,ACGGTATC,0.0721
19,ATGACACC,0.0826
20,AGGCTACC,0.0747
21,ACAGTAAA,0.0733
22,ACTAGTAA,0.0744
23,AGCAGCAG,0.0718

row,Sequence,binding signal (normalized occupancy)
1,ATCTTCAC,0.0759
2,ATGCTTCG,0.0788
3,ATGACTAC,0.0811
4,CCAGCCGC,0.0711
5,GCCGTAAC,0.0713
6,AACAGTTA,0.07
7,TGCACCAA,0.077
8,CCATGCAC,0.0969
9,CTGTGTAC,0.0761
10,CAAGTATA,0.086
11,CGAAACTA,0.0701
12,GAACACGA,0.0948
13,CAATTCCC,0.0808
14,GGAGGCAC,0.0743
15,AGATTTTA,0.0758
16,ATCATCCG,0.0779
17,CGCCGAAC,0.0739
18,CGCGCGCG,0.0873
19,AGCACCCT,0.0789
20,AACGAGGT,0.084
21,TAAAGAAA,0.0705
22,CTCATGTA,0.0936
23,GCGTGAGC,0.091

row,Sequence,binding signal (normalized occupancy)
1,CACTTTCA,0.0735
2,ACTTCAAA,0.0727
3,CGTCTAAA,0.072
4,GGAAATGA,0.0761
5,AACTTAAG,0.0741
6,AAGCGGCA,0.0743
7,CGCATAAC,0.0798
8,TAGTAATA,0.0773
9,ATATTACC,0.077
10,AGTCTTAT,0.0802
11,CTTTCGTC,0.0737
12,GGTGGGGA,0.0816
13,ACCTTTCG,0.0715
14,CGGTCACA,0.0791
15,CTCTCGTC,0.0699
16,ATCACCAC,0.0852
17,CGACAGTA,0.0748
18,CGTAGGGA,0.073
19,CGGCGGTC,0.0675
20,CGGAAAGC,0.0696
21,GTGTGTAA,0.0776
22,AGGCGGCC,0.0747
23,AGCGCGTC,0.0772

row,Sequence,binding signal (normalized occupancy)
1,CCTAGATA,0.0756
2,ATTACAGC,0.0764
3,GCGAGCCA,0.0666
4,AGACCACA,0.082
5,CTATAGGA,0.0753
6,AATTAATT,0.0782
7,ACCTACGG,0.0677
8,CCGGTAAG,0.0644
9,GCTAACCC,0.0788
10,CCGTCCGC,0.0764
11,ACGACACG,0.0876
12,ATTTTTAC,0.0773
13,CCTTCCGA,0.0695
14,AACCTAGT,0.0704
15,ACTTACCC,0.0824
16,AGACCGCG,0.0698
17,GTCCAGAA,0.0736
18,AACGCCAT,0.0796
19,GTACCCAC,0.0809
20,TAATTAGA,0.0731
21,CCAGCCAA,0.0689
22,TAAGAGAA,0.0732
23,CGTTAGAG,0.0749

row,Sequence,binding signal (normalized occupancy)
1,AATGCGTG,0.0941
2,CCATGCAG,0.0965
3,CAATAGGA,0.0779
4,CACCCCTA,0.0846
5,CGGAAGGC,0.0657
6,CAGGTTGC,0.0791
7,AAGTGGCC,0.0705
8,CAATACTA,0.0735
9,GTAGTACA,0.0841
10,TAGCAGCA,0.0781
11,ATCCCGGA,0.0731
12,TCTCGACA,0.075
13,AAGAACCA,0.0782
14,ATCGTTGG,0.077
15,CAGAGTTA,0.0755
16,AGGGACCT,0.0673
17,CCTGCACG,0.0845
18,AGGTGGAG,0.0827
19,CTTTGTTA,0.0748
20,GACTCAGA,0.072
21,GATAATGC,0.0859
22,AGTCCCTG,0.0718
23,AGCTAGAA,0.0701

row,Sequence,binding signal (normalized occupancy)
1,ACAACATA,0.0833
2,ATCCGGGG,0.0744
3,GCCCTCTA,0.0736
4,CCATTGGA,0.0702
5,CCCACTCC,0.0787
6,AAGTGAAT,0.0756
7,GCTGAGAA,0.0743
8,AATACTCA,0.0802
9,ATTGGGGG,0.0854
10,TGCCAACA,0.0786
11,CAAGGCCA,0.0771
12,CCAATATA,0.0811
13,AGACACGG,0.0756
14,ATAAGCGG,0.0717
15,CGATCGAC,0.0717
16,ATGCATCG,0.0835
17,CCACTAAG,0.0706
18,GCCAGGCC,0.0665
19,CTGACGGA,0.0692
20,CAGCAGTA,0.0727
21,GGAGCTCC,0.066
22,ATTGTGGG,0.0776
